# Measurements as given in the supplement of paper PMC8728848.
# This is one part of the list.
# B1: OVGAL11 (Ovis aries), AAF64320 (protein)
# chain: MDSLPNPYLQSVSLTVCYMVKIKANLLSAFGKNPELQVDFGTGTGQGGNIPFRFWYCDGMVVMNTFTDGSWQKEEKVLTDAFVPGQPFELQFLVLEKEYQVFVKNKPICQFAHRLPLQSVKMLDVRGDIVLTSVDTL
# Experiments:
# Experiment in all cases: glycan array binding signal (z-score within array); higher = stronger binding
# Details in all cases: glycan notation: IUPAC condensed, linker removed
# [1] = biological target: Man(a1-2)Man(a1-3)[Man(a1-3)[Man(a1-6)]Man(a1-6)]Man(b1-4)GlcNAc(b1-4)GlcNAc
# Procedure, shortened: (§1)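 The binding signal is a Z-score computed within each array and averaged over linkers. Arrays of the same protein sequence at different concentrations or buffers were also averaged together. Data originate from 3228 arrays in the Consortium for Functional Glycomics database, kept only where the protein sequence was available.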
# [2] = biological target: Man(a1-2)Man(a1-3)[Man(a1-6)]Man(a1-6)[Man(a1-2)Man(a1-3)]Man(b1-4)GlcNAc(b1-4)GlcNAc
# Procedure, shortened: as §1
# [3] = biological target: Man(a1-2)Man(a1-6)[Man(a1-3)]Man(a1-6)[Man(a1-2)Man(a1-2)Man(a1-3)]Man
# Procedure, shortened: as §1
# [4] = biological target: Man(a1-2)Man(a1-6)[Man(a1-3)]Man(a1-6)[Man(a1-2)Man(a1-2)Man(a1-3)]Man(b1-4)GlcNAc(b1-4)GlcNAc
# Procedure, shortened: as §1
# Man(a1-3)[Man(a1-6)]Man = biological target: Man(a1-3)[Man(a1-6)]Man
# Procedure, shortened: as §1
# [5] = biological target: Man(a1-3)[Man(a1-6)]Man(a1-6)[Man(a1-2)Man(a1-3)]Man(b1-4)GlcNAc(b1-4)GlcNAc
# Procedure, shortened: as §1
# [6] = biological target: Man(a1-3)[Man(a1-6)]Man(a1-6)[Man(a1-3)]Man
# Procedure, shortened: as §1
# [7] = biological target: Man(a1-3)[Man(a1-6)]Man(a1-6)[Man(a1-3)]Man(b1-4)GlcNAc(b1-4)GlcNAc
# Procedure, shortened: as §1
# [8] = biological target: Man(a1-3)[Man(a1-6)]Man(b1-4)GlcNAc(b1-4)GlcNAc
# Procedure, shortened: as §1
# [9] = biological target: Man(a1-3)[Man(a1-6)]Man(b1-4)GlcNAc(b1-4)[Fuc(a1-6)]GlcNAc
# Procedure, shortened: as §1
# Man(a1-6)Man = biological target: Man(a1-6)Man
# Procedure, shortened: as §1
# Man(b1-4)GlcNAc = biological target: Man(b1-4)GlcNAc
# Procedure, shortened: as §1
# MurNAc(b1-4)GlcNAc = biological target: MurNAc(b1-4)GlcNAc
# Procedure, shortened: as §1
# Neu5Ac(a2-3)Gal = biological target: Neu5Ac(a2-3)Gal
# Procedure, shortened: as §1
# [10] = biological target: Neu5Ac(a2-3)Gal(b1-3)GalNAc
# Procedure, shortened: as §1
# [11] = biological target: Neu5Ac(a2-3)Gal(b1-3)GalNAc(b1-3)Gal(a1-4)Gal(b1-4)Glc
# Procedure, shortened: as §1
# [12] = biological target: Neu5Ac(a2-3)Gal(b1-3)GalNAc(b1-4)[Neu5Ac(a2-3)]Gal(b1-4)Glc
# Procedure, shortened: as §1
# [13] = biological target: Neu5Ac(a2-3)Gal(b1-3)GalNAc(b1-4)[Neu5Ac(a2-8)Neu5Ac(a2-3)]Gal(b1-4)Glc
# Procedure, shortened: as §1
# [14] = biological target: Neu5Ac(a2-3)Gal(b1-3)GalNAc6S
# Procedure, shortened: as §1
# [15] = biological target: Neu5Ac(a2-3)Gal(b1-3)GlcNAc
# Procedure, shortened: as §1
# [16] = biological target: Neu5Ac(a2-3)Gal(b1-3)GlcNAc(b1-2)Man
# Procedure, shortened: as §1
# [17] = biological target: Neu5Ac(a2-3)Gal(b1-3)GlcNAc(b1-2)Man(a1-3)[GlcNAc(b1-4)][Neu5Ac(a2-3)Gal(b1-3)GlcNAc(b1-2)Man(a1-6)]Man(b1-4)GlcNAc(b1-4)GlcNAc
# Procedure, shortened: as §1
# [18] = biological target: Neu5Ac(a2-3)Gal(b1-3)GlcNAc(b1-2)Man(a1-3)[Neu5Ac(a2-3)Gal(b1-3)GlcNAc(b1-2)Man(a1-6)]Man(b1-4)GlcNAc(b1-4)GlcNAc
# Procedure, shortened: as §1
# [19] = biological target: Neu5Ac(a2-3)Gal(b1-3)GlcNAc(b1-3)Gal(b1-3)GlcNAc
# Procedure, shortened: as §1
# [20] = biological target: Neu5Ac(a2-3)Gal(b1-3)GlcNAc(b1-3)Gal(b1-4)GlcNAc
# Procedure, shortened: as §1
# [21] = biological target: Neu5Ac(a2-3)Gal(b1-3)GlcNAc(b1-3)GalNAc
# Procedure, shortened: as §1
# [22] = biological target: Neu5Ac(a2-3)Gal(b1-3)GlcNAc(b1-4)Gal(b1-4)Glc
# Procedure, shortened: as §1
# [23] = biological target: Neu5Ac(a2-3)Gal(b1-3)GlcNAc(b1-6)GalNAc
# Procedure, shortened: as §1
# [24] = biological target: Neu5Ac(a2-3)Gal(b1-3)GlcNAc6S
# Procedure, shortened: as §1
# [25] = biological target: Neu5Ac(a2-3)Gal(b1-3)[Fuc(a1-4)]GlcNAc
# Procedure, shortened: as §1
# [26] = biological target: Neu5Ac(a2-3)Gal(b1-3)[Fuc(a1-4)]GlcNAc(b1-3)Gal(b1-3)[Fuc(a1-4)]GlcNAc
# Procedure, shortened: as §1
# [27] = biological target: Neu5Ac(a2-3)Gal(b1-3)[Fuc(a1-4)]GlcNAc(b1-3)Gal(b1-4)[Fuc(a1-3)]GlcNAc
# Procedure, shortened: as §1
# [28] = biological target: Neu5Ac(a2-3)Gal(b1-3)[GlcNAc(b1-6)]GalNAc
# Procedure, shortened: as §1
# [29] = biological target: Neu5Ac(a2-3)Gal(b1-3)[Neu5Ac(a2-3)Gal(b1-4)]GlcNAc
# Procedure, shortened: as §1
# [30] = biological target: Neu5Ac(a2-3)Gal(b1-3)[Neu5Ac(a2-6)]GalNAc
# Procedure, shortened: as §1
# [31] = biological target: Neu5Ac(a2-3)Gal(b1-3)[Neu5Ac(a2-6)]GlcNAc(b1-3)[Fuc(a1-3)[Gal(b1-4)]GlcNAc(b1-6)]Gal(b1-4)Glc
# Procedure, shortened: as §1
# [32] = biological target: Neu5Ac(a2-3)Gal(b1-3)]Neu5Ac(a2-3)Gal(b1-4)]GlcNAc
# Procedure, shortened: as §1
# Neu5Ac(a2-3)Gal(b1-4)Glc = biological target: Neu5Ac(a2-3)Gal(b1-4)Glc
# Procedure, shortened: as §1
binder,measurement,setting,value
B1,glycan array binding signal (z-score),[1],-0.611
same,glycan array binding signal (z-score),[2],0.159
same,glycan array binding signal (z-score),[3],-0.038
same,glycan array binding signal (z-score),[4],-0.092
same,glycan array binding signal (z-score),Man(a1-3)[Man(a1-6)]Man,0.003
same,glycan array binding signal (z-score),[5],-0.077
same,glycan array binding signal (z-score),[6],-0.102
same,glycan array binding signal (z-score),[7],-0.269
same,glycan array binding signal (z-score),[8],-0.23
same,glycan array binding signal (z-score),[9],-0.069
same,glycan array binding signal (z-score),Man(a1-6)Man,-0.048
same,glycan array binding signal (z-score),Man(b1-4)GlcNAc,-0.293
same,glycan array binding signal (z-score),MurNAc(b1-4)GlcNAc,-0.098
same,glycan array binding signal (z-score),Neu5Ac(a2-3)Gal,-0.094
same,glycan array binding signal (z-score),[10],-0.147
same,glycan array binding signal (z-score),[11],-0.299
same,glycan array binding signal (z-score),[12],-0.203
same,glycan array binding signal (z-score),[13],-0.069
same,glycan array binding signal (z-score),[14],-0.064
same,glycan array binding signal (z-score),[15],-0.195
same,glycan array binding signal (z-score),[16],-0.053
same,glycan array binding signal (z-score),[17],-0.08
same,glycan array binding signal (z-score),[18],-0.043
same,glycan array binding signal (z-score),[19],-0.086
same,glycan array binding signal (z-score),[20],-0.233
same,glycan array binding signal (z-score),[21],-0.121
same,glycan array binding signal (z-score),[22],-0.033
same,glycan array binding signal (z-score),[23],-0.132
same,glycan array binding signal (z-score),[24],-0.316
same,glycan array binding signal (z-score),[25],0.028
same,glycan array binding signal (z-score),[26],-0.074
same,glycan array binding signal (z-score),[27],0.055
same,glycan array binding signal (z-score),[28],-0.061
same,glycan array binding signal (z-score),[29],-0.275
same,glycan array binding signal (z-score),[30],0.032
same,glycan array binding signal (z-score),[31],-0.089
same,glycan array binding signal (z-score),[32],-0.02
same,glycan array binding signal (z-score),Neu5Ac(a2-3)Gal(b1-4)Glc,-0.143
